Screen size: about 16,000 compounds; about 120 (0.75%) were called active. About 4% were inconclusive and are not listed. Calls come from the whole dose curve; as a rule, active = well fitted inhibition curve with a large enough effect; inconclusive = small, poorly fitted or top-dose-only effect; inactive = no such curve, though single readings can be large or run the other way. The list shows a part of the results. Where a SMILES comes first, the peptide text is derived from it.
Biological target: Rap guanine nucleotide exchange factor 3 (Homo sapiens) (UniProt O95398)
UniProt O95398, sequence (O95398 whole entry, looked up): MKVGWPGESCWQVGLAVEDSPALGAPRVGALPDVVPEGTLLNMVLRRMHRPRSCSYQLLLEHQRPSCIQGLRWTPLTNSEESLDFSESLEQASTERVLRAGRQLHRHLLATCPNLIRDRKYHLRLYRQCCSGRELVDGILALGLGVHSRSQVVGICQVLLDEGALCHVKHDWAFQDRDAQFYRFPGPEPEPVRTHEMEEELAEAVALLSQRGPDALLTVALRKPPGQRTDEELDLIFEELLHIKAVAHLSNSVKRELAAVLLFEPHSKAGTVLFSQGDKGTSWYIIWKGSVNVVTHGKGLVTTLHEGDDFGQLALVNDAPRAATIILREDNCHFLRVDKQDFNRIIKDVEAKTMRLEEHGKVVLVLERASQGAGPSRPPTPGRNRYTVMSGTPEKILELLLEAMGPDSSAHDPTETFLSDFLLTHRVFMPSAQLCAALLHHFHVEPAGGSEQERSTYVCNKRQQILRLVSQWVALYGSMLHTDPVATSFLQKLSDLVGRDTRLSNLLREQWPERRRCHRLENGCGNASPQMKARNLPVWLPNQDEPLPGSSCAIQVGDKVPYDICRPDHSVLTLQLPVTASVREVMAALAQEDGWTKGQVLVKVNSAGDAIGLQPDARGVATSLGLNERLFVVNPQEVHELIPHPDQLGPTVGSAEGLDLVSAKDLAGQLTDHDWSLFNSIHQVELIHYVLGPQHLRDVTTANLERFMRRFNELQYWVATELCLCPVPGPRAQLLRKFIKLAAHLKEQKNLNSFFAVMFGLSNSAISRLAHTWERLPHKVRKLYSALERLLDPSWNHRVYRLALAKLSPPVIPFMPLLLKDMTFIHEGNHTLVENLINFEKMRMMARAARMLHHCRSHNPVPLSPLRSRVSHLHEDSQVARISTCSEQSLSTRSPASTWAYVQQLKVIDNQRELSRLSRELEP
Test: Validation qHTS for antagonist of cAMP-regulated guanine nucleotide exchange factor 3 (EPAC1);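 note: plate controls were DMSO for no effect and ATA control for full effect; nearly all actives have a fitted effect of over 75% in size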
Settings: EPAC1 Rap1B-BODIPY-GDP exchange, fluorescence; series mostly up to 150 µM; activity change, negative = inhibition: at the top concentration
How it was run: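 Nucleotide exchange followed as fluorescence loss when BODIPY-GDP leaves Rap1B (480 nm excitation, 540 nm emission), read at 5 min intervals over 30 min. Reaction: 100 nM EPAC1, 250 nM RAP1B-BODIPY-GDP, 50 uM GDP; ATA and DMSO define normalization.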

Activity change, negative = inhibition, inactive:
O=C1CCC[C@@H]2[C@H](Cc3ccccc3)[C@@H](O)C[C@@H]3CCN1[C@@H]32 -14.2%
O=S(=O)(c1ccccc1)N1CCC2(CC1)CN(Cc1ccccc1)C2 14.7%
CC(=O)C(C)=O -0.0011% [at 75.8 µM]
COc1ccc(Oc2ncc3nc(CCc4ccccc4)c(=O)n(CCC#N)c3n2)cc1 4.04%
Cn1cccc1C(=O)N1CCC2(CCCN(c3ccccn3)C2)CC1 5.39%
c1ccc2[nH]c(-c3cscn3)nc2c1
N#Cc1cccc(-c2nc(Nc3ccccc3)c3ccccc3n2)c1 26.3%
OC[C@@H](O)[C@@H](O[C@@H]1O[C@H](CO)[C@H](O)[C@H](O)[C@H]1O)[C@H](O)[C@@H](O)CO -5.02%
COc1ccc2[nH]cc(CCNc3ncnc4ccc(-c5ccc(C(=O)N(C)C)cc5)cc34)c2c1 22.1%
COc1ccc(-c2ccc(C(=O)N3CCc4c(cnc(C)c4CNS(=O)(=O)N(C)C)C3)o2)cc1 4.51%
O=C1CC2(CCCC2)CC(=O)N1CCNC[C@H]1COc2ccccc2O1 6.08%
O=C(NCC1Cc2cc(F)cc(-c3cnccn3)c2O1)c1cccc(Cl)c1 (stereo unspecified) -8.87%
CN1[C@@H](CC(=O)c2ccccc2)CCC[C@H]1C[C@H](O)c1ccccc1
COC(=O)N1CCC2(CCCN(c3ccncc3)C2)CC1 12.9%
CCCCCCCN(CC)CCCC(O)c1ccc(NS(C)(=O)=O)cc1 (stereo unspecified) -9.23%
CC1C(=O)CCC2[C@]1(C)CCC1[C@]2(C)CC[C@@]2(C)C3CC(C)(C)CC[C@]3(C)CC[C@@]12C (stereo partly specified) -4.36%
C=C1C[C@]23C[C@@]1(O)CC[C@H]2[C@@]12C=C[C@H](O)[C@@](C)(C(=O)O1)[C@H]2[C@@H]3C(=O)O -25.8% [at 75.8 µM]
CN1CCN(c2nc(-c3ccccc3C(F)(F)F)nc3ccccc23)CC1 9.92%
COc1ccccc1-c1nccc(NCc2ccccc2)n1 3.04%
Cc1occc1C(=O)Nc1cccc(-c2nc(CNC(=O)c3ccc4ccccc4n3)c(C)o2)c1 8.17%
C1=Cc2ccccc2/C1=C/c1ccc(/C=C2\C=Cc3ccccc32)cc1 11.9%
Cc1cc(C)n(Cc2cccc(C(=O)NCC3Cc4cccc(-c5ncccn5)c4O3)c2)n1 (stereo unspecified) -5.11%
Oc1cc(-c2nc3ccccc3s2)cc2c1OCCN(Cc1cccn1-c1nccs1)C2 8.28%
Nc1ncnc2c1ncn2[C@@H]1O[C@H](COP(=O)(O)OP(=O)(O)CP(=O)(O)O)[C@@H](O)[C@H]1O 11.6%
CC1(C)S[C@@H]2[C@H](NC(=O)[C@H](NC(=O)N3CCN(S(C)(=O)=O)C3=O)c3ccccc3)C(=O)N2[C@H]1C(=O)O 24.9%
CN(C(=O)CO)c1c(I)c(C(=O)NCC(O)CO)c(I)c(C(=O)NCC(O)CO)c1I (stereo unspecified) 19.1%
CN1CCN(c2ncnc3ccc(-c4ccc(C(=O)N(C)C)cc4)cc23)CC1 12%
CC(=O)N(Cc1ccc2c(c1)OCO2)Cc1cc2ccc(C)cc2nc1-c1cccc(C)c1 -19.1%
C[C@@H]1[C@H](c2ccccc2)OCCS(=O)(=O)N1Cc1ccc(Cl)cc1 -4.05%
N#CCCn1c(=O)c(-c2ccc(F)cc2)nc2cnc(Oc3cccc(Cl)c3)nc21 21.6%
O/N=C(/C[n+]1ccsc1)c1ccc(I)cc1 -9.22%
O=C(c1ccco1)N1CCC2(CCCN(c3ncccn3)C2)CC1 15.7%
Cc1cccc(CNc2ncncc2-c2ccc3c(c2)OCO3)c1 8.46%
CC(C)CCCC(C)CCCC(C)CCCCC(C)CCCC(C)CCCC(C)C (stereo unspecified) 5.23%
COC(=O)c1c(OC)cc2c(c1C)Oc1c(Cl)c(OC(C)=O)c(Cl)c(C)c1C(=O)O2 -9.85%
N#Cc1cc([N+](=O)[O-])c2sc(C(N)=O)[n+]([O-])c2c1 -0.687% [at 75.8 µM]
O=C(c1ccncc1)N1CCC2(CCN(Cc3cc(C(F)(F)F)cc(C(F)(F)F)c3)CC2)CC1 -8.49%
C[C@@H]1Oc2ccccc2C=C1/C=C/C(=O)O 11.3%
CC[N+](CC)(CC)CCOC(=O)C(C1CCCC1)C1CCCC1 38.6%
COCCn1c(=O)c(-c2cccc(F)c2)nc2cncnc21 -17.6%
CC[N+]1(CC(=O)c2ccc(I)cc2)CCCCC1 11.8%
CN1CCC(=O)N([C@H](CSc2ccccc2)Cc2ccccc2)CC1 15.6%
COc1ccccc1-c1cc2c(c(OC)c1)OCCN(CCC(C)c1ccc(C)o1)C2 (stereo unspecified) 11.5%
Cc1nc2ccc(C(=O)N3CCOc4ccc(CN5CCOCC5)cc4C3)cc2nc1C 8.02%
COCC(=O)Nc1cc(C(=O)N2CCN(C3CCCC3)C(=O)C2)c2c(c1)nc(-c1ccncc1)n2C 16.8%
CC(C)CC(NC(=O)CN)C(=O)NC(Cc1ccccc1)C(=O)O (stereo not drawn) (H-Gly-Leu-Phe-OH; configuration not given here) 11.1%
O=C(Oc1ccccc1)N1CCC[C@@]2(CCN(c3ccccc3)C2)C1 -5.74%
c1ccc(-c2cccc(N3CCCC4(CCNCC4)C3)c2)cc1 14.8%
S=C(S)O[C@@H]1C[C@@H]2C[C@H]1[C@@H]1CCC[C@H]21 -7.86%
COc1ccc(-c2cc(=O)c3c(O)cc(O[C@@H]4O[C@H](CO[C@@H]5O[C@@H](C)[C@H](O)[C@@H](O)[C@H]5O)[C@@H](O)[C@H](O)[C@H]4O)cc3o2)cc1O 11.4%
COc1ccc(/C=C2\NC(=O)[C@@H]3Cc4ccccc4CN3C2=O)cc1 12%
COCCn1c(=O)c(-c2ccc(OC)cc2)nc2cnc(OC)nc21 -0.0917%
OC(C[n+]1c(Cl)ccc2ccccc21)c1ccccc1 (stereo unspecified) 22.3%
N#Cc1ccccc1-c1ccc2ncnc(NCCN3CCOCC3)c2c1 11.4%
CNc1ccnc(-c2c(C)noc2C)n1 26.4%
Cc1cc(C(=O)NCC2CCC3(CCN(Cc4cccc(F)c4F)CC3)O2)n(C)n1 (stereo unspecified) 2.05%
COc1ccc(C2CC(=O)c3c(O)cc(O)cc3O2)cc1O (stereo unspecified) 3.42%
Cc1noc(C)c1-c1nccc(NCc2cccs2)n1 -5.04%
CCCCC/C=C\C\C=C/C=C/C=C/[C@@H](SC[C@H](NC(=O)CC[C@H](N)C(=O)O)C(=O)NCC(=O)O)[C@@H](O)CCCC(=O)O 9.01% [at 1.57 µM]
COc1ccc(C(=O)N2CCN(CC(=O)N3CCOCC3)CC2)cc1 5.09%
Cc1ccccc1CN1[C@@H](CC2CCCCC2)COCCS1(=O)=O -14.7%
